Measurements taken from patent US20100196361A1, “Method of inhibition of vascular development using an antibody” (DYAX CORP., priority 2003, published 2010).

How the values were obtained:
HUVEC = experiment: Tube formation by HUVEC in collagen gel; type: cell-based, human
Method: Human Umbilical vein endothelial cells (HUVEC) were obtained by treating fresh human umbilical cord veins with Trypsin-EDTA (1×) (Gibco/Invitrogen) for 20-25 minutes at 37° C. The cells were cultured in a T-25 flask coated with attachment factor (AF), (Cascade Biologics) in RPMI 1640 medium supplemented with 10% FCS, 0.4% BBE, 1% 1-glutamin, 1% penicillin/streptomycin. Primary cultures were detached with warm Trypsin-EDTA and used when confluent at the second or third passage. The cells were maintained in a proliferative state by culturing them in a split ratio 1:2 at an approximate density of the monolayer of about 60-80%. To dissociate the cells, HUVEC monolayers were treated with trypsin/EDTA (500 μl/dish) at 37° C. for 3 min. Trypsin activity was stopped by adding 3 volumes of complete RPMI medium. The cells were carefully scraped, separated by repeated pipetting, and finally washed with PBS.
After 2 passages HUVECs were seeded in their culture medium (40×10^3/50 μl/well of a 96-well plate) on a collagen gel (50 μl of collagen I 1.5 mg/ml) prepared by mixing 7.5 volumes of 2 mg/ml collagen (Collagen R; Serva, Heidelberg, Germany), 1 volume of 10× MEM, 1.5 volume of NaHCO3 (15.6 mg/ml) and ˜1 volume of NaOH to adjust the pH to 7.4. […] The assay was performed with a streptavidin antibody used as a control (from 1 ng/ml to 10 μg/ml): The total length of the tube network on the culture surface was quantified at 40× magnification by the METAVUE™ Software (Universal Imaging Corporation). Results from triplicate wells were expressed as mean vessel area per field ±SEM (relative units). […]
Germlined E3 (DX-2220) and its parental antibody (DX-2200) were evaluated in the tube formation assay in a collagen type-I matrix. […] The total length of the tube network on the culture surface was quantified at 40× magnification by the METAVUE™ Software (Universal Imaging Corporation). Results from triplicate wells were expressed as mean vessel area per field ±SEM (relative units). […]

[1] = system: human LNM35 lung cancer xenografts; experiment: LNM35 lung cancer xenograft in nude mice; type: in vivo, mouse
Method: The effect of DX-2220 on tumor growth in mice bearing human LNM35 lung cancer xenografts was tested. For these studies, LNM35 cells were injected subcutaneously in the lateral thorax of athymic nude mice. Four days after tumor cell implantation, treatment was initiated with DX-2220 or A2-SV (negative control antibody) at a dosage of 20 mg/kg, three times a week. Tumor sizes were measured at day 6, 8 and 10 post antibody treatment.
(§1) In addition to the in vivo studies presented above, four additional mouse xenografts studies were performed. These studies were conducted either according to the protocols used in the SW-480 or LNM35 study.
The anti-Tie1 antibody was also evaluated for its effect on implanted tumors. Tumor cells were injected subcutaneously into the abdominal region of mice (Balb/C nu/nu female mice, 5-6 weeks old). The following tumor cells were tested: a lung carcinoma (mouse syngeneic Lewis lung carcinoma (LLC)); human lung carcinoma LNM35; an aggressive human colon carcinoma clone (SW480R). Treatments with anti-Tie1 antibody were initiated 4-6 days post-implantation. The anti-Tie1 antibodies or a control antibody (the A2 anti-streptavidin antibody) were administered intraperitoneally at 20 mg/kg every second day. Tumor volume was measured every second day and calculated as 0.5×height×width×depth.

[2] = system: PC-3 (human prostate cancer); experiment: PC-3 xenograft in mice; type: in vivo, mouse; settings: day 28 after start of treatment
Method: as §1

B1: DX-2220: full length, IgG1, germlined human anti-Tie1 antibody E3b; LC SEQ ID NO:700, HC SEQ ID NO:701 (antibody)
heavy: EVQLLESGGGLVQPGGSLRLSCAASGFTFSMYGMVWVRQAPGKGLEWVSVISPSGGNTGYADSVKGRFTISRDNSKNTLYLQMNSLRAEDTAVYYCARAPRGYSYGYYYWGQGTLVTVSS[left out - human IgG1 constant region]
light: DIQMTQSPSSLSASVGDRVTITCRASQGIGHYLAWYQQKPGKVPKLLIYTASTLQSGVPSRFSGSGSGTDFTLTISSLQPEDVATYYCQQFNSYPHTFGQGTRLEIKRTVAAPSVFIFPPSDEQLKSGTASVVCLLNNFYPREAKVQWKVDNALQSGNSQESVTEQDSKDSTYSLSSTLTLSKADYEKHKVYACEVTHQGLSSPVTKSFNRGEC
modifications: Antibody
HUVEC; HUVEC, collagen type-I matrix, 0.1 ng/ml to 100 ng/ml tested
  IC50, tube formation: less than 10 ng/ml
HUVEC; HUVEC, conversion of 10 ng/ml
  IC50: < 0.066 nM
HUVEC; collagen type-I gel
  inhibition of tube formation by HUVECs: inhibits tube formation
[1]; 20 mg/kg three times a week
  body weight: did not exhibit any significant loss in body weight
[1]; 20 mg/kg three times a week from day 4, versus A2-SV, p=0.037
  slowing of tumor progression: ~60%
[1]; LNM35 #3, day 21 after start of treatment
  inhibition of tumor progression: 30% inhibition @ day 21
[2]
  inhibition of tumor progression: 24% inhibition @ day 28
